{"source": "paper PMC4336329", "about": "(PLoS ONE, 2015)", "note": "About 2,200 (0.71%) of roughly 310,000 compounds showed an effect of 50% or more. The effect is printed as a negative number. The list shows a part of the results."}
{"target": "human ether-à-go-go-related gene (hERG) potassium channel (human, UniProt Q12809)", "sequence (Q12809 whole entry, looked up)": "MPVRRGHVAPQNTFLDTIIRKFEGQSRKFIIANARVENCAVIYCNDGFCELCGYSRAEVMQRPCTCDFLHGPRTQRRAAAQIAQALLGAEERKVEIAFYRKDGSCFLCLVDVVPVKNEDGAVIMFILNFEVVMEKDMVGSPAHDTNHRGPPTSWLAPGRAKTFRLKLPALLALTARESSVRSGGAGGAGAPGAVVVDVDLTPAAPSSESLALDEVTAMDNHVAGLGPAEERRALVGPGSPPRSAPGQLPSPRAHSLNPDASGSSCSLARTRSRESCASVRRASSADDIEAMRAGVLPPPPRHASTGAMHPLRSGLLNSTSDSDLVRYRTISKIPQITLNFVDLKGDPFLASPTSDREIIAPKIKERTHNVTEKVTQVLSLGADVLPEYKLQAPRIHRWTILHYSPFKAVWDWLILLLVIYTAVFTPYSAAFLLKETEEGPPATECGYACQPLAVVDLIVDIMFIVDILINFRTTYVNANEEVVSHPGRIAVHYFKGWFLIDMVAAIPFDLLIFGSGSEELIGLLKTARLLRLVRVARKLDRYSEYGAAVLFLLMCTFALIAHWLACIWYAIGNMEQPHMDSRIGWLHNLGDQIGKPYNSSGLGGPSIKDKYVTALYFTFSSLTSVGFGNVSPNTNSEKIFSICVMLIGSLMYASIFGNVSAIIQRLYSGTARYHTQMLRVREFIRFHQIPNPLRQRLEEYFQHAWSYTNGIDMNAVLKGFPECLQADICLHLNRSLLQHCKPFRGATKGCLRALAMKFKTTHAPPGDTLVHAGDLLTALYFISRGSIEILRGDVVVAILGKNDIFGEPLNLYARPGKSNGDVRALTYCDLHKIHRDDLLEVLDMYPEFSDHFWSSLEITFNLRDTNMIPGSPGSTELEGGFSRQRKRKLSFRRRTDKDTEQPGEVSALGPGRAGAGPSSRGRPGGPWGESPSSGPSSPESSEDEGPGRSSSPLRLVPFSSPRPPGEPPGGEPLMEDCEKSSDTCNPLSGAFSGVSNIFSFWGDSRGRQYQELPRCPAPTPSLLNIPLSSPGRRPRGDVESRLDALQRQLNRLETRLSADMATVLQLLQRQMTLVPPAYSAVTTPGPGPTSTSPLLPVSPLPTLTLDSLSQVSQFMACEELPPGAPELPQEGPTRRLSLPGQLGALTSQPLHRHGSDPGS", "assay": "primary screen, population patch clamp on CHO cells stably expressing hERG", "units": {"hERG current change (%, negative = inhibition) at 1uM": "%"}}
{"compound": "Cc1csc(=O)n1CCC(=O)OCC(=O)Nc1ccc(Cl)cn1", "hERG current change (%, negative = inhibition) at 1uM": 6.83}
{"compound": "COc1ccccc1NC(=O)COc1ccc(/C=N/NC(=O)CSCc2ccc(Cl)cc2)cc1", "hERG current change (%, negative = inhibition) at 1uM": 7.3}
{"compound": "CCC(C)C(NC(=O)C1CCC(=O)N1C(=O)OCc1ccccc1)C(=O)NC(C(=O)N1CCCC1C(N)=O)C(C)CC", "note": "(centres unmarked)", "hERG current change (%, negative = inhibition) at 1uM": 6.05}
{"compound": "COc1cccc(S(=O)(=O)N2CCOCC2)c1", "hERG current change (%, negative = inhibition) at 1uM": -3.4}
{"compound": "O=C(/C=C/c1ccco1)NCCCN1CCOCC1", "hERG current change (%, negative = inhibition) at 1uM": 13.9}
{"compound": "O=C(COC(=O)CCC1CCCC1)Nc1ccccc1Br", "hERG current change (%, negative = inhibition) at 1uM": -1.26}
{"compound": "CC(=O)Nc1ccccc1OCC(=O)c1cc(C)n(Cc2cccs2)c1C", "hERG current change (%, negative = inhibition) at 1uM": 13.5}
{"compound": "Cc1ccccc1OCCn1c(=S)[nH]c2c(N)ncnc21", "hERG current change (%, negative = inhibition) at 1uM": 8.36}
{"compound": "Cc1occc1-c1nnc(SCC(=O)NCc2cccs2)n1-c1ccc(F)cc1", "hERG current change (%, negative = inhibition) at 1uM": -14}
{"compound": "O=C(/C=C/c1ccc(S(=O)(=O)N2CCOCC2)cc1)NC(=S)Nc1ccc(N2CCOCC2)cc1", "hERG current change (%, negative = inhibition) at 1uM": 10.9}
{"compound": "Cc1cccc(N2CCN(C(=O)Cc3ccc(Br)cc3)CC2)c1C", "hERG current change (%, negative = inhibition) at 1uM": 4.95}
{"compound": "CC1CCCC(C)N1C(=O)CSc1nnc(C2CCCCC2)o1", "note": "(centres unmarked)", "hERG current change (%, negative = inhibition) at 1uM": 2.29}
{"compound": "COC(=O)Nc1sccc1C(=O)Nc1sccc1C(=O)OC", "hERG current change (%, negative = inhibition) at 1uM": 11.6}
{"compound": "COc1ccccc1N1C(=S)N=C(Nc2c(C)cccc2C)C12CCCC2", "hERG current change (%, negative = inhibition) at 1uM": 11.2}
{"compound": "c1ccc2sc(C3CCN(Cc4nnnn4Cc4ccc5c(c4)OCO5)CC3)nc2c1", "hERG current change (%, negative = inhibition) at 1uM": 7.43}
{"compound": "COc1ccccc1CNC(=O)CCn1c(=O)[nH]c2ccsc2c1=O", "hERG current change (%, negative = inhibition) at 1uM": 5.2}
{"compound": "Cc1ccc(/C=C/c2ccc(=O)n(Cc3ccc(F)cc3)n2)cc1", "hERG current change (%, negative = inhibition) at 1uM": 2.51}
{"compound": "COc1ccc(/C=C2/Sc3ccc(C(=O)N4CCc5ccccc5C4)cc3NC2=O)cc1", "hERG current change (%, negative = inhibition) at 1uM": 6.99}
{"compound": "CC(=O)Nc1nc(-c2ccccc2)nc(C)c1C(C)=O", "hERG current change (%, negative = inhibition) at 1uM": 1.51}
{"compound": "Cc1cc(C)cc(NC(=O)C2(c3cccs3)CCOCC2)c1", "hERG current change (%, negative = inhibition) at 1uM": 17.5}
{"compound": "Cc1nc(CNS(=O)(=O)c2ccc3c(c2)OCCO3)cs1", "hERG current change (%, negative = inhibition) at 1uM": 7.4}
{"compound": "C/C(=N\\NC(=O)C(=O)Nc1c(C)n(C)n(-c2ccccc2)c1=O)c1ccncc1", "hERG current change (%, negative = inhibition) at 1uM": -1.04}
{"compound": "O=C(N/C(=C\\c1cccs1)C(=O)N1CCOCC1)c1ccco1", "hERG current change (%, negative = inhibition) at 1uM": -2.36}
{"compound": "CN(C)c1ccc(C2N(C)C(=O)c3ccccc3N2C)cc1", "note": "(centres unmarked)", "hERG current change (%, negative = inhibition) at 1uM": 9.2}
{"compound": "O=C(NC1CCN(S(=O)(=O)c2ccc(F)cc2)CC1)c1ccco1", "hERG current change (%, negative = inhibition) at 1uM": 16.1}
{"compound": "Cc1cccc(N2CCN(C(=O)CSc3nc4ccccc4nc3N3CC(C)OC(C)C3)CC2)c1C", "note": "(centres unmarked)", "hERG current change (%, negative = inhibition) at 1uM": 10.2}
{"compound": "O=C(NCC1COc2ccccc2O1)C1CCN(S(=O)(=O)c2cccc3nsnc23)CC1", "note": "(centres unmarked)", "hERG current change (%, negative = inhibition) at 1uM": 13.3}
{"compound": "O=C(Nc1cccc(S(=O)(=O)N2CCCCC2)c1)C1CCCN1S(=O)(=O)c1ccccc1F", "note": "(centres unmarked)", "hERG current change (%, negative = inhibition) at 1uM": -5.15}
{"compound": "C/C=C/C(=O)Nc1ccccc1Br", "hERG current change (%, negative = inhibition) at 1uM": 10.8}
{"compound": "COc1cc(OC)c(C(=O)OCC(=O)Nc2nnc(-c3ccccc3)o2)cc1OC", "hERG current change (%, negative = inhibition) at 1uM": 11.5}
{"compound": "CC(=O)ON1C(C)(C)CC(OC(=O)c2ccccc2)CC1(C)C", "hERG current change (%, negative = inhibition) at 1uM": 15.3}
{"compound": "Cc1ccc(C)c(S(=O)(=O)NCCCN2CCOCC2)c1", "hERG current change (%, negative = inhibition) at 1uM": 11.7}
{"compound": "Nc1cc2nc3ccccc3oc-2cc1=O", "hERG current change (%, negative = inhibition) at 1uM": 11.2}
{"compound": "COc1ccc([C@H]2CC(=O)C=C(c3ccc(C)c([N+](=O)[O-])c3)C2)cc1", "hERG current change (%, negative = inhibition) at 1uM": 24}
{"compound": "COc1ccc(C[C@](C)(N)C(=O)O)cc1OC.Cl", "hERG current change (%, negative = inhibition) at 1uM": 8.83}
{"compound": "O=C(Cc1ccccc1)Nc1c2c(nn1-c1cccc(Cl)c1)CS(=O)(=O)C2", "hERG current change (%, negative = inhibition) at 1uM": -38.4}
{"compound": "Cc1cnc(NC(=O)C2CCCC2)s1", "hERG current change (%, negative = inhibition) at 1uM": 23.1}
{"compound": "COc1ccc(C2C(C#N)=C(N)Oc3cc(C)n(CCN4CCOCC4)c(=O)c32)cc1OC", "note": "(centres unmarked)", "hERG current change (%, negative = inhibition) at 1uM": 0.544}
{"compound": "COc1ccc(OC)c(NC(=O)CCNS(=O)(=O)c2cccc3nsnc23)c1", "hERG current change (%, negative = inhibition) at 1uM": 8.18}
{"compound": "Cc1ccc(C(=O)N2CCCC(C(=O)Nc3cccc(-c4ccc(F)cc4)c3)C2)cn1", "note": "(centres unmarked)", "hERG current change (%, negative = inhibition) at 1uM": 7.01}
{"compound": "CC(Sc1nc(-c2ccccc2)cc(C(F)(F)F)n1)C(=O)N1CCOCC1", "note": "(centres unmarked)", "hERG current change (%, negative = inhibition) at 1uM": 10.8}
{"compound": "O=C(CSc1nnc2ccccn12)NC(=O)c1ccccc1", "hERG current change (%, negative = inhibition) at 1uM": -1.43}
{"compound": "O=C(Nc1c(C(=O)N2CCOCC2)cnn1-c1ccccc1)c1ccc([N+](=O)[O-])cc1", "hERG current change (%, negative = inhibition) at 1uM": 10.5}
{"compound": "CC(C)[C@H](NC(=O)[C@@H]1Cc2c([nH]c3ccccc23)C2c3ccccc3C(=O)N21)C(=O)N1CCC[C@@H]1C(=O)O", "note": "(some centres unmarked)", "hERG current change (%, negative = inhibition) at 1uM": 14}
{"compound": "COC(CNC(=O)c1cc(S(=O)(=O)N2CCc3ccccc32)ccc1F)OC", "hERG current change (%, negative = inhibition) at 1uM": 18.2}
{"compound": "COC(=O)c1ccc(COc2ccc(C#N)cc2)o1", "hERG current change (%, negative = inhibition) at 1uM": 11.1}
{"compound": "CC(=O)Nc1nc2c(F)cccc2s1", "hERG current change (%, negative = inhibition) at 1uM": 8.54}
{"compound": "CC(=O)N1CCc2cc(S(=O)(=O)NC(C(=O)NC(C)c3ccccc3)C(C)C)ccc21", "note": "(centres unmarked)", "hERG current change (%, negative = inhibition) at 1uM": 13}
{"compound": "CC1(C)CC(=O)C=C(NC2CCCCC2)C1", "hERG current change (%, negative = inhibition) at 1uM": 11.4}
{"compound": "CCc1ccc(C2C(C#N)=C(N)Oc3cc(N)ccc32)cc1", "note": "(centres unmarked)", "hERG current change (%, negative = inhibition) at 1uM": 7.36}
{"compound": "CCc1ccc(NC(=O)C(C)OC(=O)/C=C/c2cccc([N+](=O)[O-])c2)cc1", "note": "(centres unmarked)", "hERG current change (%, negative = inhibition) at 1uM": -4.46}
{"compound": "Cc1cc(Cl)ccc1OCC(=O)N[C@@H](Cc1ccccc1)c1nc2ccccc2[nH]1", "hERG current change (%, negative = inhibition) at 1uM": -11}
{"compound": "Cc1ccc(NC(=O)Nc2ccccc2CC[N+](=O)[O-])cc1", "hERG current change (%, negative = inhibition) at 1uM": 13.1}
{"compound": "Cc1cc(Cl)ccc1OCC(=O)NNC(=O)C1CCN(c2ncnc3sc(C)c(C)c23)CC1", "hERG current change (%, negative = inhibition) at 1uM": 11}
{"compound": "CCNC(=O)/C(=C/c1ccco1)NC(=O)/C=C/c1ccccc1", "hERG current change (%, negative = inhibition) at 1uM": 14.4}
{"compound": "COc1cccc2c1[C@@H]1CN(CCCCn3c(=O)[nH]c4c(sc5ncc(-c6ccccc6)nc54)c3=O)C[C@@H]1CO2.Cl", "hERG current change (%, negative = inhibition) at 1uM": 5.05}
